# The other results are listed elsewhere or left out.
# Tested on: HSkMC (human skeletal muscle cells)
# Assay: cytotoxicity call (relative viability < 0.9)
# Settings: 10 µM
row,Structure (SMILES),cytotoxicity call
1,O=C(C[C@@H]1C[C@H]2c3cc(NC(=O)Nc4ccc(C(F)(F)F)cc4)ccc3O[C@H]2[C@H](CO)O1)NCCc1ccccc1,active
2,C[C@@H]1CN([C@@H](C)CO)C(=O)c2cc(NC(=O)CCC(F)(F)F)ccc2O[C@@H](C)CCCCO[C@H]1CN(C)Cc1ccccc1,inactive
3,C[C@@H](NS(=O)(=O)c1cccc(F)c1)C(=O)O,inactive
4,COc1ccc(S(=O)(=O)Nc2ccc3c(c2)C(=O)N([C@@H](C)CO)C[C@@H](C)[C@H](CN(C)C(=O)Nc2cccc4ccccc24)OCCCC[C@H](C)O3)cc1,inactive
5,C[C@@H]1CN([C@@H](C)CO)C(=O)c2cc(C#Cc3ccccc3F)cnc2O[C@@H]1CN(C)S(=O)(=O)c1ccccc1,inactive
6,O=C(C[C@@H]1C[C@@H]2c3cc(NS(=O)(=O)c4ccccc4)ccc3O[C@@H]2[C@@H](CO)O1)NC1CCCCC1,inactive
7,C[C@H](CO)N1C[C@H](C)[C@@H](CN(C)C(=O)Nc2ccc(C(F)(F)F)cc2)Oc2ccc(NC(=O)CCCCCC(=O)Nc3ccccc3N)cc2CC1=O,inactive
8,Cc1c(C(N)=O)sc2[nH]cnc(=O)c12,inactive
9,COc1ccc(NC(=O)Nc2cccc3c2O[C@@H](CN(C)Cc2ccc(Cl)c(Cl)c2)[C@H](C)CN([C@@H](C)CO)C3=O)cc1,inactive
10,C[C@@H]1CN([C@H](C)CO)C(=O)c2cc(NC(=O)NC3CCCCC3)ccc2O[C@H]1CN(C)C(=O)Nc1cccc2ccccc12,inactive
11,CCCN(C)C[C@H]1Oc2cc(C#Cc3cccc(OC)c3)ccc2S(=O)(=O)N([C@@H](C)CO)C[C@H]1C,inactive
12,Cc1noc(C)c1NC(=O)Nc1ccc2c(c1)C(=O)N([C@H](C)CO)C[C@H](C)[C@@H](CN(C)CC1CC1)OCCCC[C@H](C)O2,inactive
13,C[C@H]1CN([C@@H](C)CO)S(=O)(=O)c2ccc(Br)cc2O[C@@H]1CN(C)C(=O)c1cccnc1,inactive
14,Cc1noc(C)c1NC(=O)Nc1ccc2c(c1)CC(=O)N([C@@H](C)CO)C[C@@H](C)[C@H](CN(C)C(=O)Nc1ccc(C(F)(F)F)cc1)O2,inactive
15,C[C@H](CO)N1C[C@H](C)[C@H](CN(C)S(=O)(=O)c2ccc(C#N)cc2)OCc2cnnn2CCCC1=O,inactive
16,C[C@@H]1CCCCO[C@@H](CN(C)CC2CCCCC2)[C@H](C)CN([C@@H](C)CO)C(=O)c2cc(NC(=O)NC3CCCCC3)ccc2O1,inactive
17,CC(=C\C(=O)O)/C=C(\C)C[C@H](C)CCCC[C@H](OC(=O)[C@H](CO)[C@H](O)CCCC[C@H](C)C/C(C)=C/C(C)=C/C(=O)O)[C@@H](CO)C(=O)O,inactive
18,Cc1ccc(S(=O)(=O)Nc2ccc3c(c2)C(=O)N([C@H](C)CO)C[C@@H](C)[C@H](CN(C)S(=O)(=O)c2cccs2)O3)cc1,inactive
19,O=C(NC1CCCCC1)NC1CCCCC1,inactive
20,C[C@@H]1CCCCO[C@@H](CN(C)Cc2ccc(C(F)(F)F)cc2)[C@@H](C)CN([C@H](C)CO)C(=O)c2cc(NS(=O)(=O)c3ccc(F)cc3)ccc2O1,inactive
21,COc1ccc(C(=O)Nc2ccc3c(c2)C(=O)N(C)[C@@H]2CC[C@@H](CC(=O)NCC4CC4)O[C@@H]2CO3)cc1,inactive
22,CO[C@H]1CN(C)C(=O)c2cc(NS(C)(=O)=O)ccc2OC[C@H](C)N(C(=O)c2ccc3c(c2)OCO3)C[C@H]1C,inactive
23,C[C@H](CO)N1C[C@H](C)[C@@H](CN(C)CC2CC2)Oc2c(NC(=O)Nc3cccc4ccccc34)cccc2C1=O,inactive
24,Cc1ccc(-c2cccc(C(=O)N[C@H]3CC[C@@H](N)CC3)c2)o1,inactive
25,COc1cccc(-c2ccc3c(c2)O[C@H](CN(C)C(=O)C2CC2)[C@@H](C)CN([C@H](C)CO)S3(=O)=O)c1,inactive
26,COc1ccc(NC(=O)Nc2ccc3c(c2)C(=O)N([C@@H](C)CO)C[C@@H](C)[C@H](CN(C)S(=O)(=O)c2cn(C)cn2)O3)cc1,inactive
27,C[C@]1(C(=O)NCc2ccccc2)c2ccccc2C(=O)N(Cc2ccc(OC(F)(F)F)cc2)[C@H]1c1ccc(CO)cc1,inactive
28,COc1ccc(NC(=O)Nc2ccc3c(c2)C(=O)N([C@H](C)CO)C[C@H](C)[C@H](CN(C)Cc2ccc4c(c2)OCO4)OCCCC[C@@H](C)O3)cc1,inactive
29,C[C@@H]1CCCCO[C@H](CN(C)Cc2ccc(C(F)(F)F)cc2)[C@@H](C)CN([C@H](C)CO)C(=O)c2cc(NC(=O)Nc3cccc4ccccc34)ccc2O1,inactive

# — the antibiotic and cytotoxicity screens of Wong et al. (2023)
